# Reference: the BET-seq Pho4 binding data (Le et al. 2018)
# Some of the results follow. These are noisy estimates, calculated here from bound and input reads.
# Target: T1, Pho4 (S. cerevisiae) (UniProt P07270)
# T1 sequence: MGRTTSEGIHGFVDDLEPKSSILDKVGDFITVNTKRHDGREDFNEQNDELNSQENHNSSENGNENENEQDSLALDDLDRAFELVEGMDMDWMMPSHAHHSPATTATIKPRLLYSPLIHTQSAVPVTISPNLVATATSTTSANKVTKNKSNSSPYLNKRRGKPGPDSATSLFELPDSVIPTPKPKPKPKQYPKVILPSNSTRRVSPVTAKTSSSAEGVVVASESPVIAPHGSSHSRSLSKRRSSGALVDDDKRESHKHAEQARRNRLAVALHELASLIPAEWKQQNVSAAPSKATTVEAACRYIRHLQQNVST
# Assay: relative binding free energy (BET-seq); higher = weaker binding
# Settings: reference: library average
row,Sequence,relative binding free energy [kcal/mol]
1,CGGTACACGTGGGTGG,-0.1
2,TCGGGCACGTGAATTT,0.21
3,TTTGCCACGTGGGATG,0.01
4,TACAGCACGTGGTCGG,-0.13
5,GTAGCCACGTGGTGCG,-0.05
6,ATGTGCACGTGAGATG,0.27
7,CTGCGCACGTGTGTGT,-0.25
8,AGTGACACGTGGGTAG,-0.23
9,CGATTCACGTGGCTTT,0.29
10,GTAGTCACGTGTGGCA,0.03
11,ACATGCACGTGGAGGT,-0.02
12,TGGACCACGTGTGTAT,-0.03
13,GGTGTCACGTGTTACG,0.14
14,TAGTTCACGTGTGGGA,0.43
15,TGATGCACGTGGAGTT,0.02
16,TAGTGCACGTGGCGTA,-0.03
17,GGCGTCACGTGGTGCG,0.09
18,GTAGTCACGTGTGTAC,0.04
19,TTAGTCACGTGCCTTT,0.12
20,ATGTTCACGTGTATCT,0.19
21,TGGTTCACGTGGAACT,0.19
22,GGATGCACGTGCGTGT,-0.06
23,TTGTGCACGTGAGAGC,0.32
24,CTGTGCACGTGGGTAA,-0.15
25,GCTATCACGTGTTTGT,0.13
26,TGGAACACGTGTCGTT,-0.02

row,Sequence,relative binding free energy [kcal/mol]
1,GATTGCACGTGTCTTT,0.28
2,TTTAGCACGTGAGCGG,0.12
3,TTAGTCACGTGGGGAC,0.04
4,TAATTCACGTGAGAGA,0.4
5,TCGTGCACGTGCGAGG,-0.2
6,GACGTCACGTGTTTTG,0.24
7,GTGGCCACGTGATTTA,0.12
8,GGTGTCACGTGGATCA,0.19
9,TGCTGCACGTGAAGGT,0.13
10,GTGAACACGTGTGGGT,0.04
11,TTAGTCACGTGGTATA,0.05
12,CGGGACACGTGTTAGT,0.2
13,TGGGGCACGTGTCAAG,-0.17
14,TGCGTCACGTGAAGCG,0.27
15,ATGCGCACGTGTCGTG,-0.17
16,TGTAACACGTGTCATT,0.03
17,GGCGGCACGTGTAGGG,-0.08
18,GTAAACACGTGTTCGT,0.12
19,AAGCGCACGTGGGGTC,-0.23
20,ATCAACACGTGGGGGG,-0.13
21,AAGGTCACGTGTAGAA,0.11
22,ATAGGCACGTGGGGGA,-0.31
23,TGGGTCACGTGATGAC,0.13
24,TGTGGCACGTGTAAGG,0.09
25,ATTATCACGTGCTAGG,0.13
26,GGTGTCACGTGGCGGT,0.09

row,Sequence,relative binding free energy [kcal/mol]
1,TTAATCACGTGTCTTT,0.08
2,AGCGTCACGTGCAGTG,0.09
3,ATTTTCACGTGGTTGA,0.18
4,TGGAACACGTGTTGGA,0.05
5,TGGAACACGTGGATGA,0.14
6,TGACGCACGTGGGTGC,-0.24
7,TTAATCACGTGTGGGA,0.28
8,AACTTCACGTGGGTGG,0.24
9,AGGCGCACGTGGGATT,-0.16
10,ATGCTCACGTGAGGCT,0.48
11,GTTGGCACGTGGACAT,0.06
12,GATATCACGTGGGAAT,0.18
13,GATGTCACGTGGGATC,0.07
14,GGGGACACGTGCGGGC,-0.03
15,TGGTTCACGTGATAGC,0.41
16,TTGTACACGTGGTCTC,0.04
17,CATGTCACGTGTGGTA,0.11
18,GAGATCACGTGAGGTT,0.47
19,AAGGCCACGTGTGTGG,-0.05
20,GGGGCCACGTGCAGGA,-0.13
21,GAAAGCACGTGTAGTG,-0.03
22,TGGCACACGTGAGTGG,0.24
23,CTGCTCACGTGTATGG,0.14
24,GTCTACACGTGGGGGA,0.15
25,AGGATCACGTGGTATT,-0.05
26,TCTATCACGTGGTATG,0.07

row,Sequence,relative binding free energy [kcal/mol]
1,CAATGCACGTGTTTAG,0.09
2,CTGGTCACGTGTCGTA,0.04
3,AGTTTCACGTGGGGAG,0.26
4,TAGTGCACGTGCGTCG,-0.07
5,ATTACCACGTGTAGTA,0.09
6,CTGAGCACGTGGTGCG,-0.09
7,AGCAGCACGTGTTTGG,-0.24
8,TTTTGCACGTGCGTAG,0
9,GTGCTCACGTGGCATG,0.27
10,TTGAGCACGTGGGTGC,-0.18
11,ATTCGCACGTGATATG,0.08
12,AGGCGCACGTGTGAGG,-0.04
13,GGTTGCACGTGGTGCT,-0.05
14,TACTGCACGTGTGTCT,-0.01
15,CGTTTCACGTGGATTT,0.4
16,AGAAGCACGTGTAGAG,0.06
17,TCGCGCACGTGAGGGG,0.03
18,AATACCACGTGGTGGT,-0.12
19,TCACTCACGTGGGGTG,0.07
20,TGCGTCACGTGTGGGT,0.03
21,CTTTTCACGTGCGAGT,0.19
22,GAAAACACGTGGTTTG,-0.08
23,TAATACACGTGGTTGA,-0.02
24,TGTTTCACGTGCAATG,0.28
25,ATTAGCACGTGAGCGT,-0.02
26,GTATGCACGTGGCATA,0

row,Sequence,relative binding free energy [kcal/mol]
1,TGTTGCACGTGTAAAA,0.13
2,TAAAGCACGTGTGTGC,-0.13
3,AAGAGCACGTGAGGCG,0.09
4,TAATGCACGTGAGTAC,0.29
5,GTTTTCACGTGATTGC,0.31
6,TAGGCCACGTGGGATA,-0.13
7,CTTGTCACGTGTAGTT,0.07
8,TGTCGCACGTGGGGGT,-0.25
9,TGGTTCACGTGCAGAT,0.24
10,TTCATCACGTGTTGGG,0.13
11,TCTCGCACGTGTTATG,0
12,GTATGCACGTGGTGGT,0.04
13,TACGGCACGTGGTTTT,-0.03
14,GCGGGCACGTGGATAT,-0.01
15,GTGACCACGTGTGGTA,-0.03
16,GCGTTCACGTGGCGAG,0.28
17,TAGATCACGTGTTGGG,0.18
18,ACAGGCACGTGTGGTG,-0.25
19,AAGGGCACGTGGTCTG,-0.33
20,ATTTTCACGTGAGATT,0.42
21,ATATACACGTGGGTCT,-0.01
22,TTCGGCACGTGCTGTT,-0.05
23,GTTTTCACGTGCAGGA,0.26
24,GTGGACACGTGCGGAG,-0.04
25,GGGTCCACGTGTTTAG,0.15
26,TATAGCACGTGAATTG,0.06

row,Sequence,relative binding free energy [kcal/mol]
1,AATGTCACGTGTTGCG,-0.01
2,AGTGGCACGTGAAGTG,0.31
3,GCTTTCACGTGGGTGG,0.12
4,TTTCGCACGTGTACGG,0.1
5,TGTCGCACGTGGATGT,-0.09
6,CATTGCACGTGCTGGT,-0.02
7,GAATTCACGTGCGTTG,0.25
8,TTAGGCACGTGTGAGC,-0.08
9,AGCTGCACGTGTGTGT,-0.13
10,TAAGACACGTGGTAGT,-0.23
11,GTTTGCACGTGCTAAT,0.01
12,ATAGTCACGTGGTTTT,0
13,CTCGGCACGTGGGCGA,-0.05
14,GGTGGCACGTGGTAAC,-0.11
15,GGTGACACGTGACAGG,0.04
16,GGTATCACGTGGAGAA,0.28
17,TAGACCACGTGGGTTT,-0.05
18,GTGTGCACGTGAAGTT,0.29
19,TGGTGCACGTGCGCTG,-0.07
20,TATGTCACGTGGAAGA,0.13
21,GGTGTCACGTGAATTA,0.47
22,CGTTTCACGTGTGGAA,0.28
23,TGAAGCACGTGTTAAT,0.17
24,TTTAACACGTGTTGCG,0.02
25,ATAGTCACGTGCGTAG,0.1
26,ATGATCACGTGTGATG,0.31

row,Sequence,relative binding free energy [kcal/mol]
1,AGTATCACGTGAGTCT,0.33
2,AGTTGCACGTGTAATA,0.09
3,CTCTTCACGTGGTGGT,0.22
4,TTTTTCACGTGACGGT,0.34
5,TTAAACACGTGTGGTT,-0.03
6,TAGATCACGTGCGTTG,-0.02
7,TGGGTCACGTGCCGGC,0.02
8,GGTATCACGTGTGATT,0.15
9,GATTGCACGTGTTCTT,0.01
10,TAAGTCACGTGCGTGA,0.02
11,TTAGGCACGTGTGGGC,-0.03
12,GGGCACACGTGGGAAA,0.14
13,GGGTCCACGTGGTTAT,0.05
14,ATTTACACGTGAATTT,0.28
15,GGTTTCACGTGTTGTT,0.27
16,GCAGGCACGTGTAAAT,0.18
17,GTCCTCACGTGGTGGG,0.07
18,AAAGTCACGTGTATTG,0.08
19,TGTAGCACGTGGACAT,-0.09
20,GTGGGCACGTGTATGA,-0.01
21,ATAGTCACGTGTGAGA,0.2
22,ATAGCCACGTGGGTAA,-0.07
23,TTCCGCACGTGCTGGG,-0.03
24,GGGTTCACGTGTCTTG,0.38
25,TGGGCCACGTGTGGGC,0.03
26,CAGGTCACGTGGGGGA,-0.08

row,Sequence,relative binding free energy [kcal/mol]
1,GCTGTCACGTGTTGTA,0.12
2,TTAAGCACGTGAATTA,0.26
3,TTAAGCACGTGTTAAT,-0.01
4,AGTTCCACGTGTGGCG,0.16
5,TTAATCACGTGATCTG,0.2
6,TATTGCACGTGTTGCG,0
7,ATTGTCACGTGGTTGT,0.1
8,CTAGTCACGTGTGGAG,0.23
9,GCCTGCACGTGTTGGT,0.15
10,GGATACACGTGAGGTT,0.37
11,TAGTGCACGTGAGTAA,0.13
12,GCGTGCACGTGAGGTG,0.22
13,TCGGTCACGTGAAGTA,0.35
14,AGGTTCACGTGGGGGC,0.14
15,TGTCACACGTGCGGGC,0.07
16,GATCGCACGTGTTAGG,0.09
17,GCGTGCACGTGTTGGC,0.11
18,GATTGCACGTGTTTAA,0
19,TCGTACACGTGTGTTA,0.04
20,AGGGGCACGTGACTGG,-0.05
21,TTTTACACGTGGGAGA,0.08
22,TGCGACACGTGGTTAT,0.03
23,GCTGTCACGTGGTTTG,0.11
24,CGTGCCACGTGACGGG,0.07
25,AGGTTCACGTGAGTGC,0.32
26,ATTATCACGTGTATTC,0.06

row,Sequence,relative binding free energy [kcal/mol]
1,GAATGCACGTGGTGGT,-0.03
2,GGTCACACGTGCTGTG,0.17
3,TTCAGCACGTGGGATG,-0.25
4,TGGGGCACGTGTATCG,-0.07
5,GAGGTCACGTGAATAG,0.29
6,GGCGGCACGTGGTATG,-0.09
7,TAAGGCACGTGTGTGG,-0.07
8,TCTGTCACGTGTGATA,0.15
9,ATTAGCACGTGTTAGG,0
10,CTGTTCACGTGAGATG,0.41
11,GTGCTCACGTGTATGT,0.27
12,GTATCCACGTGGTGGA,-0.06
13,GCTTGCACGTGTGTGC,-0.04
14,TCACGCACGTGGGTGT,-0.34
15,GCGTTCACGTGGTTAT,0.42
16,TATTTCACGTGTAGCG,0.28
17,TTGATCACGTGAGGCG,0.31
18,TATAGCACGTGGGAGC,-0.13
19,TGGGTCACGTGGAAGG,0.15
20,CGGTGCACGTGGTTTT,0.12
21,ATTTGCACGTGACTTA,-0.04
22,AGTGGCACGTGTCAAT,-0.1
